{
  "source": "PubChem BioAssay (NCATS)",
  "key": {"[1]": {"experiment": "qHTS Assay for Identification of Small Molecule Antagonists for NFkB Signaling Pathway (AID 895; active = well fitted inhibition curve with a large enough effect in the signal ratio, with a control signal flat, not every such curve was filed as active; inconclusive = small, poorly fitted or top-dose-only effect, or effect the other way, or a change in a side signal; the % refers to the signal ratio; also: % is scaled to controls: 0 for no effect and ±100 for the full control effect)", "conditions": "NFkB beta-lactamase reporter cells, FRET ratio 460/530, stimulated with 10 pM TNF alpha; activity change, negative = inhibition: at 38.3 µM (top of the series)", "outline": "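ME-180 NFkB-bla cells (beta-lactamase under NFkB response element), plated overnight, treated with compound then 10 pM TNF alpha (about EC50) for 5 hrs at 37 C. LiveBLAzer FRET read at 460/530 nm emission, 405 nm excitation.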"}, "[2]": {"experiment": "qHTS Assay for Identification of Small Molecule Antagonists for Thrombopoietin (TPO) Signaling Pathway (AID 918); also: nearly all actives have a fitted effect of over 60% in size", "conditions": "TPO-dependent cell signaling reporter, antagonist mode; activity change, negative = inhibition: at 38.5 µM (top of the series)", "outline": "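Ba/F3 (murine, hTPO-R, GPIIb-luc reporter); overnight IL-3 withdrawal; cpd + TPO 26 pM final (EC50); 24 h 37 C/5% CO2; Steadylite luminescence after 10 min RT.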"}, "[3]": {"molecular_target": "Muscarinic acetylcholine receptor M1 (Rattus norvegicus) (UniProt P08482)", "sequence (P08482 whole entry, looked up)": "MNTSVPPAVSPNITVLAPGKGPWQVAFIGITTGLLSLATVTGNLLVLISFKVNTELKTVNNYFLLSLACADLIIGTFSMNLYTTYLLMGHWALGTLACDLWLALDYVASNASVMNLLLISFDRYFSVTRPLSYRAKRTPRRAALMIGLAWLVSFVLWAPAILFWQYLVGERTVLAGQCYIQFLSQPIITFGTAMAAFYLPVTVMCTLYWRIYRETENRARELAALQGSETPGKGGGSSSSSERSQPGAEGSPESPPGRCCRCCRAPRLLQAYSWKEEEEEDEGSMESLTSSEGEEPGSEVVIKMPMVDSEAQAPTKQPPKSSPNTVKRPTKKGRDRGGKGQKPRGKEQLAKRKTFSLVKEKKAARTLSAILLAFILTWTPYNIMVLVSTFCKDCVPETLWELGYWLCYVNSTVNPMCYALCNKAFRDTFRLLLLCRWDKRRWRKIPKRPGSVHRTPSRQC", "experiment": "qHTS Assay for Antagonists of Acetylcholine Muscarinic M1 Receptor: Measurement of IP-One Response (AID 944); also: potency is read from the fitted curve at half-maximal effect; nearly all actives have a fitted effect of over 75% in size"}, "[4]": {"molecular_target": "DNA repair nuclease/redox regulator APEX1 (Homo sapiens) (UniProt P27695)", "sequence (P27695 whole entry, looked up)": "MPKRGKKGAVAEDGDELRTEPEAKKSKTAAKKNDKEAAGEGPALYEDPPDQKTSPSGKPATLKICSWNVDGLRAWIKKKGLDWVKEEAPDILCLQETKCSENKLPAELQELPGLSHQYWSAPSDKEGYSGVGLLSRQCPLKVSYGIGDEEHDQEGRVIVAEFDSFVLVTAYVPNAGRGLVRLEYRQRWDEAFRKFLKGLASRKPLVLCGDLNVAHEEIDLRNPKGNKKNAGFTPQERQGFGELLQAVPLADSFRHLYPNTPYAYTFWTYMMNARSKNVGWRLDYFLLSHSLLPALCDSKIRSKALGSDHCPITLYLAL", "experiment": "qHTS Validation Assay for Inhibitors of the Human Apurinic/apyrimidinic Endonuclease 1 (APE1) (AID 1705; also: potency is read from the fitted curve at half-maximal effect)", "outline": "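Activity read as rising fluorescence (598 nm emission, 525 nm excitation) from incision of a TAMRA/BHQ-2 duplex carrying a THF abasic site (50 nM). Compound and enzyme sat 15 min at RT before substrate start; signal change between first and third 60-s reads.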"}, "[5]": {"molecular_target": "Endonuclease 4 (Escherichia coli (strain K12)) (UniProt P0A6C1)", "experiment": "Counterscreen for APE1 Inhibitors: qHTS Validation Assay for Inhibitors of Endonuclease IV (AID 1708); also: potency is read from the fitted curve at half-maximal effect", "outline": "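E. coli EndoIV at 2 nM final, preincubated 15 min at room temperature with compound, then 50 nM TAMRA/BHQ-2 THF abasic-site duplex added. Buffer: 50 mM Tris-HCl pH 7.5, 50 mM NaCl, 2 mM MgCl2, 1 mM DTT, 0.01% Tween-20. Kinetic fluorescence increase, third minus first read.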"}, "[6]": {"experiment": "qHTS for differential inhibitors of proliferation of Plasmodium falciparum line W2 (AID 1883);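 also: potency is read from the fitted curve at half-maximal effect; parasites grown with compound for 72 h before lysis and staining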", "conditions": "Potency: Plasmodium falciparum W2 proliferation inhibition"}, "[7]": {"experiment": "qHTS Assay for Modulators of Human Peripheral Myelin Protein 22 (PMP22) Expression/Activity (AID 1967; active = well fitted curve in the direction sought with a large enough effect in the signal ratio; inconclusive = small, poorly fitted or top-dose-only effect, or effect the other way, or a change in a side signal; inactive = no such curve, though single readings can be large or run the other way; the % refers to the signal ratio; also: potency is read from the fitted curve at half-maximal effect)", "conditions": "Cell-based PMP22 reporter, dual-color luciferase ratio, mouse Pmp22 promoter in mouse Schwann cells; activity change (ratio): at 115 µM (top of the series), 0% = compound-free control cells", "outline": "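Readout is the corrected green/red luminescence ratio after 24 h compound exposure, normalised to untreated cells (0%). Engineered MSC80 mouse Schwann cells express green luciferase from the mouse Pmp22 promoter and red luciferase from EF-alpha as internal control.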"}, "[8]": {"molecular_target": "ATP-dependent 6-phosphofructokinase (Trypanosoma brucei brucei) (UniProt O15648)", "sequence (O15648 whole entry, looked up)": "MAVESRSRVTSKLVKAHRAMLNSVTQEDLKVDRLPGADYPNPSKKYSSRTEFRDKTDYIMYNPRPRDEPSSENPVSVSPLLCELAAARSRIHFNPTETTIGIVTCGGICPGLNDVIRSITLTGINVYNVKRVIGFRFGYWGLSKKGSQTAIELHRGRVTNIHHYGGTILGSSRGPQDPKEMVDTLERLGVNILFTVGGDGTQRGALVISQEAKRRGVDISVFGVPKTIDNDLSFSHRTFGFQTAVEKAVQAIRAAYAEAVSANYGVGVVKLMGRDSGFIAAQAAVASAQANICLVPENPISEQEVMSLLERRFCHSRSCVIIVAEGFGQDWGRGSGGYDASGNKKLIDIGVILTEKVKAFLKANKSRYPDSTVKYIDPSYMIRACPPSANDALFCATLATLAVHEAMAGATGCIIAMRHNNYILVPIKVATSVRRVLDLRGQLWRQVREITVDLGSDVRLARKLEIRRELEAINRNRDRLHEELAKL", "experiment": "qHTS Validation Assay to Find Inhibitors of T. brucei phosphofructokinase (AID 485368)", "outline": "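Activity was normalized between 1x (1.25 nM) PFK wells as no inhibition and enzyme-free wells as full inhibition, from luminescence after ADP-Glo detection of ADP made from 0.5 mM F6P and 0.1 mM ATP over 45 min.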"}, "[9]": {"experiment": "Nrf2 qHTS screen for inhibitors: Validation (AID 493153; active = well fitted inhibition curve with a large enough effect in the main read-out, with a control signal flat, not every such curve was filed as active; inconclusive = small, poorly fitted or top-dose-only effect, or effect the other way, or a change in a side signal; inactive = no such curve, though single readings can be large or run the other way; also: potency is read from the fitted curve at half-maximal effect)", "outline": "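Luminescence from an ARE-firefly luciferase reporter in A549 cells gives Nrf2 inhibition; an earlier CellTiter-Fluor fluorescent read flags cytotoxicity. Cells in 5% FBS OPTI-MEM received compound dilution series for 18-24 h at 37°C.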"}, "[10]": {"system": "Zika virus NS2B-NS3 protease (unlinked)", "experiment": "Optimization of GU AMC qHTS for Zika virus inhibitors: Unlinked NS2B-NS3 protease assay (AID 1347151); also: potency is read from the fitted curve at half-maximal effect; nearly all actives have a fitted effect of over 80% in size", "conditions": "recombinant ZIKV NS2B-NS3 protease, fluorogenic AMC substrate; activity change, negative = inhibition: at 52.5 µM (top of the series) unless noted", "outline": "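Fluorescence gain (340/450 nm) over 15 min at room temperature, ~20% conversion, gave percent inhibition fitted to a 4-parameter Hill equation; enzyme was unlinked NS2B-NS3 (25 nM final), pH 8.0 Tris buffer.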"}, "[11]": {"experiment": "qHTS to identify inhibitors of the type 1 interferon - major histocompatibility complex class I in skeletal muscle: primary screen against the NCATS LOPAC collection (AID 1347405)", "outline": "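Luminescence from HiBiT fused to endogenous HLA-B in CRISPR-engineered human myoblasts served as the read-out. Cells received 4.0 ng/ml IFN-beta plus compound (seven concentrations, 1:4.3 steps, highest 46 uM final) for 24 hrs before lytic detection.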"}},
  "note": "The inconclusive results got no clear call from the source; some entries with a clear call stand among them for comparison. For some assays here: Potencies of inconclusive entries are left out as doubtful fits. Calls of active or inactive are those of the source. Unless noted, calls follow the shape of the dose curve; as a rule, active = well fitted curve in the direction sought with a large enough effect; inconclusive = small, poorly fitted or top-dose-only effect, or another doubt; inactive = no such curve, though single readings can be large; an effect the other way counts as inactive or inconclusive. Tags tell the direction and shape of the fitted curve.",
  "data": [
    {"compound": "Clc1nccc2c1ccc1ccccc12", "values": [
      {"measurement": "Potency", "setting": "[1]", "result": "inactive"},
      {"measurement": "activity change, negative = inhibition", "setting": "[2]", "result": "inconclusive: 13.8% [phenotype inactive]"},
      {"measurement": "Potency", "setting": "[3]", "result": "inconclusive [inhibitor, full curve, poor fit]"},
      {"measurement": "Potency", "setting": "[4]", "result": "inconclusive [inhibitor, partial curve]"},
      {"measurement": "Potency", "setting": "[5]", "result": "inconclusive [inhibitor, partial curve, poor fit]"},
      {"measurement": "Potency", "setting": "[6]", "result": "inconclusive [inhibitor, partial curve]"},
      {"measurement": "Potency", "setting": "[7]", "result": "inconclusive [activator, partial curve, poor fit]"},
      {"measurement": "Potency", "setting": "[8]", "result": "inactive"},
      {"measurement": "Potency", "setting": "[9]", "result": "inconclusive [inhibitor, partial curve, poor fit]"},
      {"measurement": "Potency", "setting": "[10]", "result": "inconclusive [inhibitor, partial curve, poor fit]"},
      {"measurement": "Potency", "setting": "[11]", "result": "inconclusive [inhibitor, single point]"}
    ]}
  ]
}
